# Experimental data from PubChem BioAssay AID463173 (ICCB-Longwood Screening Facility, Harvard Medical School, 2010).
# About 1,700 (3.3%) of roughly 52,000 compounds were called active. Cut-off read from the data, not from the text of the source: active = survival mostly below about 52% (no sharp cut-off); inactive = mostly above about 56%. This is one part of the list.
# System: Wild type
# Experiment: S. aureus survival, RN4220 and DeltatarO strains – OD600, teichoic acid synthesis inhibitors, primary screen (AID 463173)
# Settings: S. aureus RN4220 wild type/DeltatarO growth, OD600, 18 h, stronger effect = lower value, screened at 18.75 µg/mL (by protocol)
row,Compound,survival
1,CN1CCN(C(=O)NC2CCCCC2)CC1,inactive: 108%
2,CCC(Sc1nc(N)cc(=O)[nH]1)C(=O)Nc1cccc2ccccc12 (stereo not drawn),inactive: 107%
3,COc1ccccc1CNC(=O)CCCn1c(=O)c2ccccc2n(Cc2ccccc2C#N)c1=O,inactive: 131%
4,CN(Cc1ccccc1)C(=O)C1CCN(S(C)(=O)=O)CC1,inactive: 96%
5,COc1cc(-c2oc3ccc(C)cc3c(=O)c2O)cc(OC)c1OC,inactive: 70%
6,Cc1cc2c(n1-c1ccc(C(=O)NCc3ccc(OC(C)C)cc3)cc1)CCCC2,inactive: 91%
7,COc1ccccc1NC(=O)CSc1oc(-c2ccccc2)nc1S(=O)(=O)c1ccccc1,inactive: 134%
8,COc1ccc2c(c1)c1c(c(=O)n(-c3cccc(C)c3)c(=O)n1CC(=O)NCC1CCCO1)n2C (stereo not drawn),inactive: 71%
9,CCOc1ccccc1C(=O)Nc1ccc(S(=O)(=O)Nc2ncccn2)cc1,inactive: 90%
10,Cc1cccc(Cc2c(C)nc3nc(SCc4ccccc4F)nn3c2C)c1,inactive: 91%
11,CCc1cccc(C)c1NC(=O)c1ccc2c(c1)CCN2S(=O)(=O)CC,inactive: 80%
12,CC(=O)Nc1ccc(NC(=O)c2cc(-c3cccs3)on2)cc1,inactive: 95%
13,O=C(CSC1=Nc2ccccc2N=C(c2ccc(F)cc2)C1)Nc1ccc(Cl)cc1,inactive: 92%
14,Cc1n(O)c2c3c(c4c(c2[n+]1[O-])n(O)c(C)[n+]4[O-])[n+]([O-])c(C)n3O,inactive: 104%
15,COc1ccc(OC)c(NC(=O)Cn2c(=O)n(Cc3nc(C)no3)c(=O)c3ccccc32)c1,inactive: 72%
16,COc1ccc(Cl)cc1NC(=O)NCCc1c(C)nn(C)c1C,active: -3%
17,COc1ccc(Nc2ncnc3onc(C)c23)c(OC)c1,inactive: 68%
18,Cc1ccc(Sc2c(C)nn(C(=O)c3ccc(Br)cc3)c2C)cc1,active: 13%
19,COc1ccccc1CNS(=O)(=O)c1ccc2c(c1)CC(C)N2C(=O)C1CCC1 (stereo not drawn),inactive: 126%
20,COc1ccc(N2CCN(C(=O)C(C)n3c(=O)cc(C(F)(F)F)c4c(C)nn(C)c43)CC2)cc1 (stereo not drawn),inactive: 89%

row,Compound,survival
1,Cn1cnc(S(=O)(=O)N2CCCC(C(=O)NCc3ccccc3)C2)c1 (stereo not drawn),inactive: 78%
2,Cc1cccc(N2CCN(C(=O)Cn3ncc4c([nH]c5ccccc54)c3=O)CC2C)c1 (stereo not drawn),inactive: 74%
3,COc1ccc(-c2cc(C)no2)cc1S(=O)(=O)NC1CCC(C)CC1 (stereo not drawn),inactive: 78%
4,CCOc1ccc(NC(=O)c2cc(C)nc3c2c(C)nn3-c2cccc(F)c2)cc1,inactive: 72%
5,CN1CCCc2cc(CN)ccc21,inactive: 121%
6,Cc1ccc(NC(=O)C2CCCN2S(=O)(=O)c2ccc3c(c2)C(C)(C)C(=O)N3C)cc1 (stereo not drawn),inactive: 84%
7,Cc1ccc(S(=O)(=O)c2nc(-c3ccco3)oc2SCc2ccc(F)cc2)cc1,inactive: 81%
8,CC1(C(=O)NC2CCCCC2)Cc2ccccc2C(=O)N1Cc1ccc(F)cc1 (stereo not drawn),inactive: 119%
9,CCOc1ccc(-n2ccnc2SCC(=O)Nc2ccc3c(c2)OCO3)cc1,inactive: 71%
10,O=C(CSc1nc2ccccc2nc1Cc1ccccc1)Nc1ccccc1C(F)(F)F,inactive: 77%
11,COc1ccc(S(=O)(=O)NCCc2sc3nc(-c4ccc(C)cc4)nn3c2C)cc1F,inactive: 81%
12,CCOc1ccc(CNC(=O)c2cnc3sc(N(CC)CC)nn3c2=O)cc1,inactive: 75%
13,O=C(NCCS(=O)(=O)N1CCN(c2ccccc2F)CC1)C1CC(=O)N(c2ccccc2)C1 (stereo not drawn),inactive: 73%
14,COc1cccc(NC(=O)c2c(N3CCCC3=O)c3cc(C)ccc3n2C)c1,inactive: 77%
15,CCOC(=O)CCCN1C(=O)CCn2nc(-c3cn(C)c4ccccc34)cc21,inactive: 68%
16,CCOc1ccc(CCNC(=O)c2cccc(-n3c(C)nc4cccnc43)c2C)cc1,inactive: 85%
17,O=C(Nc1ccc(C(=O)OCc2cc(=O)n3nc(C4CC4)sc3n2)cc1)c1cccc(Cl)c1,inactive: 60%
18,CCc1ccccc1NC(=O)C(CC)Oc1ccccc1-c1nnc(-c2ccccc2)o1 (stereo not drawn),active: 0%
19,COc1ccc(S(=O)(=O)N(Cc2cc3cc4c(cc3n3nnnc23)OCO4)C2CCCCC2)cc1,inactive: 104%
20,CCCCN(Cc1ccccc1)S(=O)(=O)c1cc(Br)cc2c1N(C(C)=O)CC2,inactive: 83%

row,Compound,survival
1,C=CCNc1nc(NCc2ccco2)nc(OCC)n1,inactive: 109%
2,CC(=O)Nc1nnc(CC(C)(C)C)s1,inactive: 98%
3,O=C1CC(c2ccc(Cl)cc2)c2cc3c(cc2N1)OCCO3 (stereo not drawn),inactive: 82%
4,COc1ccc(C(=O)Nc2c(C(=O)c3ccc(F)cc3)oc3ccccc23)cc1,inactive: 91%
5,CCc1cccc(C)c1NC(=O)C1CCN(S(=O)(=O)c2cccc3nonc23)CC1,inactive: 96%
6,CCOCCCNC(=O)c1cc(=O)[nH]c2ccc(S(=O)(=O)N3CCCC3)cc12,inactive: 89%
7,CCOc1ccc(CNC(=O)c2cccn2-c2nnc(N3CCCCC3)s2)cc1OC,inactive: 101%
8,CCCCC(=O)Nc1c(C(=O)N2CCN(c3ccccc3)CC2)oc2ccccc12,inactive: 80%
9,CCCSc1ncc(Cl)c(C(=O)Nc2scc(-c3ccc(C)cc3)c2C(=O)OCC)n1,inactive: 87%
10,CCCCCn1c(=O)[nH]c2cc(C(=O)N3CCN(c4cccc(OC)c4)CC3)ccc2c1=O,inactive: 72%
11,COc1ccc(-c2nc3c(c(SCC(=O)Nc4ccccc4OC)n2)Cc2cccc(C)c2O3)cc1,inactive: 88%
12,Cc1cc(C)cc(OCc2cc(=O)n3c4c(sc3n2)CCCC4)c1,inactive: 91%
13,CC(C)Oc1ccc(CNC(=O)C2CCCCN2S(=O)(=O)c2ccc(F)cc2)cc1 (stereo not drawn),inactive: 73%
14,CC(=O)Nc1nc2ccc3ccccc3c2s1,inactive: 101%
15,CCC(C)NC(=O)Cc1ccc(NC(=O)N2CCCCc3ccccc32)cc1 (stereo not drawn),inactive: 78%
16,O=C(CS(=O)(=O)c1cccc2nsnc12)Nc1ccc(F)cc1F,inactive: 81%
17,Cc1ccc(-n2c(=O)c3oc4ccccc4c3n(CC(=O)Nc3ccc(F)c(Cl)c3)c2=O)cc1C,inactive: 67%
18,COc1ccc(CN(C(=O)CN2C(=O)COc3ccccc32)C2CCCC2)c(OC)c1,inactive: 109%
